Among the data in the supplement of paper PMC10126150 are switch fluorescence ratio values, retold here.

Values marked as one replicate rest on one cluster of the flow cell; about a third of the high ones do not repeat.

For the series, the system named is ATP. The series is described as follows: switch fluorescence ratio, 500 uM ATP over buffer (Cy3 cluster intensity, sum of 5 cycles each) (fold (ratio)); higher = stronger signal-on switching upon ATP binding; sequences stand for … in TCGTCGGCAGCGTCAGATGTGTATAAGAGACAGTTTTTTTTTTTTTTTTTTTTTTTTT…TC. Particulars: aptamer strand: ATP DNA aptamer (quencher-CACCTGGGGGAGTATTGCGGAGGAAGG + anchor), 100 nM annealed; ATP concentration: 500 uM; one replicate. The procedure, abridged:
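Switching-strand clusters labelled with Cy3 on a modified Illumina MiSeq flow-cell were annealed to 100 nM quencher-labelled ATP aptamer, imaged in selection buffer, and re-imaged after 15 min with 500 uM ATP at 22 °C. This was done over five cycles with NaOH stripping and re-annealing in between. The fluorescence ratio is summed target-cycle over summed buffer-cycle Cy3 intensity per cluster, averaged per switch-domain sequence, excluding clusters outside 100-1000 RFU.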
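Note: ATP exposure 15 min at 22 °C before imaging.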

Turning to ATACACCTCG, the switch fluorescence ratio worked out at 1.
To ACATATAGAC belongs 1.01; to TCCGTAGTCC, 2.54.
For GCCAGCGCTT, the switch fluorescence ratio is 0.983.
To TAGTTCGCGT belongs 1.09.
The value for AGTTTTGTCA was 1.01; that for GCCTAGGGCT was 0.959.
Take AATATGGTGA: the switch fluorescence ratio is 0.997.
For the sequence GGACTCCTTC, the switch fluorescence ratio is 1.06.
The value for AAAGACATAT was 0.98; that for AAGTACTTAA was 1.01.
The value for CAAACGTAGT was 1.19.
To TCCCGAAGGG belongs 1.01.
In the case of TCCCATGGTT, the switch fluorescence ratio turned out to be 1.05.
With ATCTGTGTGC, the switch fluorescence ratio came to 0.988.
TTGAGTAAAC: the switch fluorescence ratio is 1.05.
The value for AGATTGTG was 0.994; that for CGTACGTCGA was 1; that for ACGGCTCCTT was 1.06.
To CTAGCCTGTG belongs 1.
The value for TCAAGGTGGC was 0.974; that for GCATGACAAT was 1.03; that for TTTCAACTGC was 0.928.
For the sequence GTATGTGCGG, the switch fluorescence ratio came out at 1.01.
To GGAATGAGTT belongs 0.994.
To TGGCTAATTC belongs 1.01.
To TTTCGGACGT belongs 0.998; to CAAAAACAAT, 1.01.
For CTTTCTGTCA, the switch fluorescence ratio amounted to 1.02.
The value for TGTAGTAAGG was 1.04; that for CATGAAATAG was 1; that for AAAAGTTCGA was 0.961.
The value for CACGTTAGGC was 1.06.
The value for GTTTTTCGA was 0.989; that for ACAGAAGAG was 1.02; that for ATTTGAAT was 0.996.
As for GGGGCGGTAG, the switch fluorescence ratio was determined as 1.02.
The value for AAATCGGTTC was 1.01.
The value for ATTTATGACC was 0.998; that for CCTCAAAAGT was 1.39.
For the sequence GCGTTGTAAG, the switch fluorescence ratio came out at 1.01.
The value for CAATGTCGGC was 0.962.
For GGTCGACGGT, the switch fluorescence ratio amounted to 1.04.
In the case of GAGAACTCG, the switch fluorescence ratio is 0.966.
To TTGTCAGG belongs 0.992; to GGAATTCTCT, 0.965.
To CGCTGGGGCG belongs 0.97; to TATTTGGGCT, 0.993; to CCGGTCCGC, 2.68.
To ATTATCCGAT belongs 1.01.
For AAGAGGTCCA, the switch fluorescence ratio is 0.972.
The value for CGGCCCTTTC was 1.13.
The value for TGCCTTAGTG was 0.996; that for TTCGTCGTGA was 1.01.
With CCTTGATCAG, the switch fluorescence ratio is 1.02.
Turning to TTATCTTTGA, the switch fluorescence ratio turned out to be 1.03.
To TATTTGGCCT belongs 1.07; to CTTCATACGT, 1.39; to CATTACTCGC, 1.35.
As to CAAAAAGGTT, the switch fluorescence ratio was found to be 1.
The value for TATTTTGCTG was 0.984; that for CTCTACTGAA was 1.05; that for AGCAAATATT was 0.99.
To TAAATGAATA belongs 0.978.
The value for CTCCTCGGTG was 1.47.
AGAGAGTAGG: the switch fluorescence ratio worked out at 1.03.
AGAATCGAGG: the switch fluorescence ratio was 0.985.
AAACAACAAA: the switch fluorescence ratio worked out at 1.06.
To TCGATCCCCT belongs 1.01.
The value for ACCTTACTAC was 2.21; that for TACTTGCAC was 1.16.
As for CAGACAAATT, the switch fluorescence ratio stood at 0.969.
The value for ATAGCGGCTC was 1.24.
The value for TGCAAGAT was 1.02.
To AAAAGACAAG belongs 1.03; to ATATTCTAAG, 0.997.
For the sequence GGTATAAATC, the switch fluorescence ratio amounted to 0.969.
To GCTGCTAAAG belongs 0.979; to CGATGAGCCG, 0.969.
In the case of TACTATGAT, the switch fluorescence ratio was 1.02.
To CGTGGTTTAA belongs 1.01; to GAGATGTCTC, 0.942.
To CGTGATTGGG belongs 0.983; to TCTGAGGGAG, 1.04.
On to TATGCAGGAG, for which the switch fluorescence ratio amounted to 1.03.
The value for AGTCATAAG was 0.957; that for CTAGTGTGGG was 0.996.
The value for TCCTACGGTG was 1.82.
To CGAGCACGAA belongs 0.978; to CTTGAACGCC, 1.09; to GGTAGAGGCG, 1.01.
For the sequence TAATGTACGT, the switch fluorescence ratio was found to be 1.
To TACACAGGGG belongs 1.04; to TAATCTATTT, 0.98.
To AAGCTTACTG belongs 1.07.
To TCAATCTGAA belongs 0.948.
GACTATCCCT: the switch fluorescence ratio was 1.03.
On to TGTAGTGGTA, for which the switch fluorescence ratio came out at 0.988.
To GGGGTCCTCC belongs 1.34; to CCAGGGAGTC, 1.03.
The value for AAGCAGGCCT was 0.948; that for GTGTAAATAT was 0.981; that for ACCGTGAGAT was 1.01.
With AAATAGATGC, the switch fluorescence ratio turned out to be 1.01.
As to TTTTTGA, the switch fluorescence ratio was determined as 1.
The value for CTCATGCTGG was 0.98; that for ATGATTTGTT was 1.02.
To AGAATGGTTA belongs 1.
To ACTCAGAGGA belongs 1.06.
Regarding ATCTGGTATT, the switch fluorescence ratio is 1.04.
To CATCCAGGAG belongs 1.79.
Turning to AGAGGGCCA, the switch fluorescence ratio was 0.938.
As for TCATATGACC, the switch fluorescence ratio stood at 1.01.
On to GTAAGTTCCA, for which the switch fluorescence ratio is 0.995.
With GCCTTGC, the switch fluorescence ratio turned out to be 1.23.
To CCGCCCCTTC belongs 2.03.
The value for GCCGTTAGAC was 1.24; that for ACGCGACGGG was 1.01.
The value for GGTAGCCGCC was 0.976; that for AACGTAAGGT was 1.04; that for GCGAGATAGC was 0.995.
